Test results taken from PubChem BioAssay AID2147 (National Center for Advancing Translational Sciences (NCATS), 2009).
Among all 230,000 compounds or so, about 3,600 (1.6%) were called active. The inconclusive results got no clear call from the source; some entries with a clear call stand among them for comparison. The call rests on the fitted dose curve; in most records, active means well fitted inhibition curve with a large enough effect (not every such curve was filed as active); inconclusive means small, poorly fitted or top-dose-only effect, or another doubt; inactive means no such curve, though single readings can be large or run the other way. Where the call is inconclusive, the potency comes from a doubtful curve fit. Some structures have more than one record in an assay (separate samples or runs), and their calls can disagree.
Further: nearly all actives have a fitted effect of over 50% in size.
Potency means the concentration at half of the fitted maximal effect; tags describe the fitted curve by direction and shape.
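Wherever activity change, negative = inhibition is given: 0% = wells with enzyme and -100% = buffer wells without enzyme.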

Each compound was assayed against Lysine-specific demethylase 4E (Homo sapiens) (UniProt B2RXH2) (assay: qHTS Assay for Inhibitors of Human Jumonji Domain Containing 2E (JMJD2E)). Settings: JMJD2E catalytic domain, FDH-coupled NADH fluorescence (FDH is formaldehyde dehydrogenase); series mostly up to 57.1 µM.
UniProt B2RXH2, sequence (B2RXH2 whole entry, looked up, the tested form may be a part): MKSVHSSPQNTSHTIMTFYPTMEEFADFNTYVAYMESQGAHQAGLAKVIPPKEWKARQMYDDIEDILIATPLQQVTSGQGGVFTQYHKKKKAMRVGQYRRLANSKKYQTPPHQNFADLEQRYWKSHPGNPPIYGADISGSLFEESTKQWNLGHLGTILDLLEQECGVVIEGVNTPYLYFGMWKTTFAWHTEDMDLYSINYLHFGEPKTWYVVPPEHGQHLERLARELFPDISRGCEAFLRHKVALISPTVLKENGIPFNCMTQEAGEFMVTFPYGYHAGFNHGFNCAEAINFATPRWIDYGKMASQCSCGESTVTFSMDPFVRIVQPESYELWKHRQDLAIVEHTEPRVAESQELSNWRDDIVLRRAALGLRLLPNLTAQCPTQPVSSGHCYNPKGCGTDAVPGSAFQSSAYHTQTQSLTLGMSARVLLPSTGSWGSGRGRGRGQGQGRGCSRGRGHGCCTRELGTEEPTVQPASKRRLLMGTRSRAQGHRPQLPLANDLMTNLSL
For Cc1cc(C)cc(NC(=O)c2cnn(-c3ccccc3)c2C2CCNCC2)c1, the Potency was “inactive”.
With Cc1cc(NC(=O)c2cc(-c3cccs3)on2)no1 the Potency was “inactive”.
In the case of CN=c1sc(C(=O)Nc2cccc(Cl)c2)cc(=O)n1C, the Potency is reported as “inactive”.
In the case of CCc1cc2c(-c3ccccc3)cc(=O)oc2c(CN2CCOCC2)c1O, the Potency is reported as inconclusive: 35.5 µM [inhibitor, single point].
In the case of O=c1cc(C(F)(F)F)[nH]c2ccccc12, the Potency is reported as inconclusive: 28.2 µM [inhibitor, partial curve].
With NNC(=O)c1cc2nc(-c3cccs3)cc(C(F)(F)F)n2n1 the Potency was inconclusive: 25.1 µM [inhibitor, partial curve].
In the case of O=C(Nc1nc(-c2ccc(-c3ccccc3)cc2)cs1)C1CCCO1 (stereo not drawn), the Potency is reported as inconclusive: 39.8 µM [inhibitor, single point].
O=C(/C=C/c1cccc2ccccc12)NCCC1=CCCCC1 was tested, and the Potency was inconclusive: 28.2 µM [inhibitor, single point].
For O=C(Nc1cc2ccccc2oc1=O)C1CCCCC1, the Potency was inconclusive: 28.2 µM [inhibitor, single point].
For CCn1cc(C(=O)O)c(=O)c2cc(F)c(N3CCN(C(=S)NC(=O)c4ccc(Br)cc4)CC3)cc21, the Potency was inconclusive: 31.6 µM [inhibitor, partial curve].
O=C(C1=C[C@H](c2ccc(C(F)(F)F)cc2)C[C@H](OCc2ccc(CO)cc2)O1)N1CCN(Cc2ccccc2)CC1 was tested, and the Potency was inconclusive: 31.6 µM [inhibitor, single point].
Cc1cc(C(=O)NCCCn2ccnc2)sc1-c1ccccc1 was tested, and the Potency was inconclusive: 31.6 µM [inhibitor, single point].
With O=C(O)Cc1cn(-c2ccccc2)nc1-c1ccc(Cl)cc1 the Potency was inconclusive: 28.2 µM [inhibitor, single point].
CC(=O)c1cnc2sccn2c1=O was tested, and the Potency was inconclusive: 28.2 µM [inhibitor, single point].
In the case of CN(C)c1ccc(/C=C/C=C2/SC(=S)N(c3ccccc3)C2=O)cc1, the Potency is reported as “inactive”.
CC(C)C[C@H](NC(=O)OC(C)(C)C)C(=O)N/N=C/C1=Cc2ccccc2OC1C (stereo partly drawn) was tested, and the Potency was inconclusive: 35.5 µM [inhibitor, partial curve].
For CCc1cccc(C)c1NC(=O)c1ccoc1C, the Potency was “inactive”.
For COc1cc(C(C(=O)NC2CCCCC2)N(C(=O)Cc2c[nH]c3ccccc23)c2ccccc2C)cc(OC)c1OC (stereo not drawn), the Potency was “inactive”.
In the case of O=C(COc1ccccc1)NC(NC(=S)Nc1ccccc1C(=O)O)C(Cl)(Cl)Cl (stereo not drawn), the Potency is reported as inconclusive: 31.6 µM [inhibitor, partial curve].
With c1cncc(-c2nc3ccccn3c2Nc2ccc3c(c2)OCCO3)c1 the Potency was “inactive”.
For COCCCNc1oc(-c2ccccc2F)nc1C#N, the Potency was inconclusive: 31.6 µM [inhibitor, partial curve].
Cc1cc(C(=O)NC(Cc2ccccc2)C(=O)O)c(C)o1 (stereo not drawn) was tested, and the Potency was “inactive”.
For Cc1cc(C)cc(Oc2cc(NC(=O)c3cn(C)nc3C)cc([N+](=O)[O-])c2)c1, the Potency was “inactive”.
In the case of O=C1CSC(=S)N1/N=C/C=C/c1ccccc1, the Potency is reported as “inactive”.
With CC1(C)Cc2c(sc3[nH]c(=S)n(Cc4ccco4)c(=O)c23)CO1 the Potency was inconclusive: 31.6 µM [inhibitor, single point].
In the case of CC(=O)Nc1ccc(S(=O)(=O)Nc2nnc(C(C)(C)C)s2)cc1, the Potency is reported as “inactive”.
For CCCCn1nc(C(=O)Oc2ccc3c(C)cc(=O)oc3c2)c2ccccc2c1=O, the Potency was inconclusive: 10 µM [inhibitor, partial curve].
For CC1Cc2ccccc2N1C(=O)c1cc2sccc2n1Cc1ccc(F)cc1 (stereo not drawn), the Potency was inconclusive: 39.8 µM [inhibitor, single point].
COCCn1c(/C=C/c2ccccc2)nc2ccccc21 was tested, and the Potency was inconclusive: 28.2 µM [inhibitor, partial curve].
For C=CCNC(=O)c1ccc2nc(-c3ccccc3)c(-c3ccccc3)nc2c1, the Potency was inconclusive: 35.5 µM [inhibitor, partial curve].
For Cc1cc(C(=O)OCC(=O)NCCCN2CCCC2=O)c2ccccc2n1, the Potency was inconclusive: 39.8 µM [inhibitor, single point].
In the case of C=CCNc1ncnc2c1[nH]c1ccc(C)cc12, the Potency is reported as inconclusive: 28.2 µM [inhibitor, partial curve].
In the case of CCOC(=O)c1ccc(NC(=O)c2cc3c(s2)CCC3)cc1, the Potency is reported as inconclusive: 25.1 µM [inhibitor, partial curve].
For Clc1ccccc1Cn1nnc(-c2ccccc2)n1, the Potency was “inactive”.
In the case of CCOc1ccc(C(=O)Nc2cccc(-c3ccc4nncn4n3)c2)cc1, the Potency is reported as inconclusive: 39.8 µM [inhibitor, single point].
CCn1nc(C)c(NC(=O)CCSc2nc(-c3ccco3)cc(C(F)(F)F)n2)c1C was tested, and the Potency was “inactive”.
In the case of CCCC(=O)Nc1ccc2nc(SCC(=O)Nc3ccc(N4CCOCC4)c(Cl)c3)sc2c1, the Potency is reported as “inactive”.
With COC(=O)CCC(=O)OC1(C)C(=O)C=C2C=C(C3CC3)N(Cc3ccccc3)C=C2C1=O (stereo not drawn) the Potency was active: 14.1 µM and the activity change, negative = inhibition was inactive: 0.446% [at 11.4 µM].
In the case of O=C(N/N=C/c1cc(Br)ccc1O)c1ccncc1, the Potency is reported as active: 28.2 µM.
With O=C(c1ccccc1)[C@@H]1[C@@H](C(=O)c2ccc(F)cc2)[C@@]2(C(=O)Nc3ccccc32)[C@H]2c3ccccc3C=CN12 the Potency was “inactive”.
For Cc1ccc(S(=O)(=O)n2nc(OC(=O)C3CCCCC3)cc2N)cc1, the Potency was “inactive”.
CC1CNCCN1S(=O)(=O)c1cccc2cnccc12 (stereo not drawn) was tested, and the Potency was “inactive”.
In the case of C(=C\c1cc(/C=C/c2ccccc2)ncn1)/c1ccccc1, the Potency is reported as inconclusive: 6.31 µM [inhibitor, partial curve].
In the case of Cc1ccc2nc(-c3cccs3)oc(=O)c2c1, the Potency is reported as inconclusive: 35.5 µM [inhibitor, single point].
With COCc1cc(C)nc(OCC(=O)N/N=C/c2ccccc2O)c1C#N the Potency was active: 25.1 µM.
In the case of COc1cc(/C=c2/sc3nc(-c4ccccc4)c(-c4ccccc4)n3c2=O)cc(OC)c1OC, the Potency is reported as “inactive”.
With CCN1CCN(c2cc(C)c3cc(NC(=S)NCCCN4CCc5ccccc5C4)ccc3n2)CC1 the Potency was inconclusive: 31.6 µM [inhibitor, partial curve].
